Test [1] has as its target T1, human platelet-type 12-lipoxygenase (human (endogenous in A431)) (UniProt P18054).
T1 sequence: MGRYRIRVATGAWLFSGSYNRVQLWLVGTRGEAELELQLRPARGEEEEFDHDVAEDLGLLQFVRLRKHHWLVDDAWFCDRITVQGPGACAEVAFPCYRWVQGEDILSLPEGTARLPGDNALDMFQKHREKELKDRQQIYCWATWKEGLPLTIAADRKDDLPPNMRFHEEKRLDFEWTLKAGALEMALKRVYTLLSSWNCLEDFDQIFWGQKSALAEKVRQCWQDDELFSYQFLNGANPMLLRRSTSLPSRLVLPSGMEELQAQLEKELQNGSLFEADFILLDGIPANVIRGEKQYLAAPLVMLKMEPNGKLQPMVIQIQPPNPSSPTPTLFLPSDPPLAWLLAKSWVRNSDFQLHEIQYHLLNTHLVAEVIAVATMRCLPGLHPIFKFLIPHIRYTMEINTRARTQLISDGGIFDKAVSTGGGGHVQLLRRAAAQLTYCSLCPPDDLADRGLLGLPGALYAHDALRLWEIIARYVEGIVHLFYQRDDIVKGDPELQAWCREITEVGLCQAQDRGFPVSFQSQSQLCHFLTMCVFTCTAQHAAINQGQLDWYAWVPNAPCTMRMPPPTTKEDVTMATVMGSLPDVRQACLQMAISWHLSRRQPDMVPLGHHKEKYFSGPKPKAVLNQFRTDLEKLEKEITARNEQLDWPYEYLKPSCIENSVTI
In words: co-IP; A431 cells and A431 12-LOX transfectants, serum-starved, stimulated with anti-β4 mAb 3E1 (5 μg/ml, 5-90 min) or grown on laminin; lysis in 1 % Triton X-100, 0.5 % NP-40, 150 mM NaCl, 10 mM Tris pH 7.4; IP with anti-12-LOX, anti-β1 or anti-β4 antibody and protein G Sepharose at 4 °C; Western blot.

The chains behind the UniProt entries cited, without tags or fusion partners. Where a name states a change or a piece, a line headed by the entry shows the natural chain unless it says otherwise.
UniProt P05556: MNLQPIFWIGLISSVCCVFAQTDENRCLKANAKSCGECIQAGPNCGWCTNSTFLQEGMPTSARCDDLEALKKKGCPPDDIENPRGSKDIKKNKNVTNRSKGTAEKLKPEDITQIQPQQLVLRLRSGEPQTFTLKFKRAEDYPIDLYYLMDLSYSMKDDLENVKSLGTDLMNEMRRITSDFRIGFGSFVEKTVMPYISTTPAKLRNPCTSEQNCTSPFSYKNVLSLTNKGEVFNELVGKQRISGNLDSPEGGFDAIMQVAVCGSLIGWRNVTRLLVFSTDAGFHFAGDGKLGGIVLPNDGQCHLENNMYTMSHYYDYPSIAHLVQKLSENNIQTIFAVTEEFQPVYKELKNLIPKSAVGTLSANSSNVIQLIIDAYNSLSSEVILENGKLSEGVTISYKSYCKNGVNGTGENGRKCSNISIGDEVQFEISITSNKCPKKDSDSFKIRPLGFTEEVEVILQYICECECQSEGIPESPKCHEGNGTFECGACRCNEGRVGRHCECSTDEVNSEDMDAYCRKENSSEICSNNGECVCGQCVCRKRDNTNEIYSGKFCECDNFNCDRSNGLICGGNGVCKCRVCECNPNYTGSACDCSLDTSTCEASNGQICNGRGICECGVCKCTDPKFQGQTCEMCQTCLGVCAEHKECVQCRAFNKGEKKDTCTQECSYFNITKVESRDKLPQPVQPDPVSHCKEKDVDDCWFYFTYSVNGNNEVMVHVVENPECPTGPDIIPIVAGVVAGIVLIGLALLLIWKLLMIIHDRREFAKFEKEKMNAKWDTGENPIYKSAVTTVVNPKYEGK

The target in test [2] is full-length, wild-type human integrin β4 subunit (pRC-CMV-β4) (human) (UniProt P16144). In words: co-IP; CHO transfectants with β4 constructs alone or with 12-LOX; lysis in 1 % Triton X-100, 0.5 % NP-40, 150 mM NaCl, 10 mM Tris pH 7.4; IP with anti-β4 mAbs (3E1, 439-9B, 450-11A) or anti-12-LOX antibody and protein G Sepharose at 4 °C; Western blot.
Test [3] addresses T2, headless, truncated human integrin β4 (pCMV-β4 Δ70-660), extracellular sequences replaced by a c-myc epitope tag (human) (UniProt P16144).
T2 sequence: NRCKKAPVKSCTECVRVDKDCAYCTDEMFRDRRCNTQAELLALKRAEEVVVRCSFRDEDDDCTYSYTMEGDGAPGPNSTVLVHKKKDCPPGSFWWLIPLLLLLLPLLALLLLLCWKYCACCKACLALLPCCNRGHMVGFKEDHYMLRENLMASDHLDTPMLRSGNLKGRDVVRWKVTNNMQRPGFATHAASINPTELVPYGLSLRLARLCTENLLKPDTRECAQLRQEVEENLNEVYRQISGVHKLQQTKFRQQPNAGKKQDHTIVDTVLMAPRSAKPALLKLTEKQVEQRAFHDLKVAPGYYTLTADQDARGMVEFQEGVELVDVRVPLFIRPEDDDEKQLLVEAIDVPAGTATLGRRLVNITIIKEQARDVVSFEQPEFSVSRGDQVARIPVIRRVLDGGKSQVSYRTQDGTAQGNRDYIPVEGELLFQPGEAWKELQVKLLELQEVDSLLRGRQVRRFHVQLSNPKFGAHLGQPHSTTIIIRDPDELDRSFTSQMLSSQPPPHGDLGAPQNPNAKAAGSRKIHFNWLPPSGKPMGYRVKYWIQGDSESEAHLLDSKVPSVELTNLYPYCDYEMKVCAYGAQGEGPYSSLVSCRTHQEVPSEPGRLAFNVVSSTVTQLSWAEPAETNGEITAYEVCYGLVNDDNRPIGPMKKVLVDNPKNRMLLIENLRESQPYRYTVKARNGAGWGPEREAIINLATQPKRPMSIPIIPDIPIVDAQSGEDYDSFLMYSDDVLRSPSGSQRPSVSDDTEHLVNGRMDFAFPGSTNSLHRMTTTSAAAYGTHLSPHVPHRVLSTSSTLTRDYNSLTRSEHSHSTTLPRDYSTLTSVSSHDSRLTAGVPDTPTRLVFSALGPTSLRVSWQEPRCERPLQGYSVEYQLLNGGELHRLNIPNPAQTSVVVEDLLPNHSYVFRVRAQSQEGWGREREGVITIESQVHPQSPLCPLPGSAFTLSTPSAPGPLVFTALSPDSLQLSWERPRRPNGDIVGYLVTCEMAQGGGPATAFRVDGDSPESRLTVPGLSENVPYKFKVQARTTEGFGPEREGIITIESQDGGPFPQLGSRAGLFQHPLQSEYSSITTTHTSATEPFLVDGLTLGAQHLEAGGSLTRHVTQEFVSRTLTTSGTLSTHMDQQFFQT
The description is as above.

Test [4] addresses T3, tail-less, truncated human integrin β4 lacking the cytoplasmic domain (pCMV-β4 Δ854-1752) (human) (UniProt P16144).
T3 sequence: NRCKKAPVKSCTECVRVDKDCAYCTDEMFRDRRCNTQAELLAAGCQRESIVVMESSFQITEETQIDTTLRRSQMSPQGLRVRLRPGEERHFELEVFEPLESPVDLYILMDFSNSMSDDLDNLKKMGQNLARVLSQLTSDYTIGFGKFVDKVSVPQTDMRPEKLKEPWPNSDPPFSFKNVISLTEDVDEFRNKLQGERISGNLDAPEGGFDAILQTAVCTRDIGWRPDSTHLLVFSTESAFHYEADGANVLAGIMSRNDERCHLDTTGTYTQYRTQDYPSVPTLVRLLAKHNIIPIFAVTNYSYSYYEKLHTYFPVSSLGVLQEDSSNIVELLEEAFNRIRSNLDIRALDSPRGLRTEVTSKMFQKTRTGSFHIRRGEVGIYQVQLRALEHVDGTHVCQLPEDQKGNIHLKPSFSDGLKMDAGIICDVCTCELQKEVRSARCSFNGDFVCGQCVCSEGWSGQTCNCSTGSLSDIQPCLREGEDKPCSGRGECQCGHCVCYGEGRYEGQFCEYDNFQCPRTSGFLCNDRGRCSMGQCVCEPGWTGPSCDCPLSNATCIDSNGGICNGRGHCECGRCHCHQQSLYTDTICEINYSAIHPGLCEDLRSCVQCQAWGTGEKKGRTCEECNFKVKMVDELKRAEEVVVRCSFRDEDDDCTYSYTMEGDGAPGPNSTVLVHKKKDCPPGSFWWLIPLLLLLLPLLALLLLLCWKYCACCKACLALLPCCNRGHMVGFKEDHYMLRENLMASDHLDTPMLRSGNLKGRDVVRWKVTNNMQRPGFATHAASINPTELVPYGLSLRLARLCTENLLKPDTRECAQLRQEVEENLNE
Described as above.

These are yes or no findings as the source states them, for the method shown. Binding seen in cells or lysates may run through a third protein. Some binding calls cover weakened binding; strength is not graded here. For some of these results: Sequences can lack the tags named with a protein.

Consider “integrin β1 subunit (from UniProt P05556 21-798) (receptor)”, for which the binding entry in test [1] is on record as “no binding”.

B1: human 12-LOX, full-length cDNA, expressed in CHO cells (enzyme, UniProt P18054 1-663)
chain: MGRYRIRVATGAWLFSGSYNRVQLWLVGTRGEAELELQLRPARGEEEEFDHDVAEDLGLLQFVRLRKHHWLVDDAWFCDRITVQGPGACAEVAFPCYRWVQGEDILSLPEGTARLPGDNALDMFQKHREKELKDRQQIYCWATWKEGLPLTIAADRKDDLPPNMRFHEEKRLDFEWTLKAGALEMALKRVYTLLSSWNCLEDFDQIFWGQKSALAEKVRQCWQDDELFSYQFLNGANPMLLRRSTSLPSRLVLPSGMEELQAQLEKELQNGSLFEADFILLDGIPANVIRGEKQYLAAPLVMLKMEPNGKLQPMVIQIQPPNPSSPTPTLFLPSDPPLAWLLAKSWVRNSDFQLHEIQYHLLNTHLVAEVIAVATMRCLPGLHPIFKFLIPHIRYTMEINTRARTQLISDGGIFDKAVSTGGGGHVQLLRRAAAQLTYCSLCPPDDLADRGLLGLPGALYAHDALRLWEIIARYVEGIVHLFYQRDDIVKGDPELQAWCREITEVGLCQAQDRGFPVSFQSQSQLCHFLTMCVFTCTAQHAAINQGQLDWYAWVPNAPCTMRMPPPTTKEDVTMATVMGSLPDVRQACLQMAISWHLSRRQPDMVPLGHHKEKYFSGPKPKAVLNQFRTDLEKLEKEITARNEQLDWPYEYLKPSCIENSVTI
As to B1, the binding entry in test [2] was “binds”; in test [3], “binds”; in test [4] it was “no binding”.

The values are drawn from article PMC4453211.
